According to publication PMC4170737 (Bioorganic & medicinal chemistry letters, 2014):

Target: T1, ectonucleotide pyrophosphatase/phosphodiesterase-1 (NPP-1) (Homo sapiens, UniProt P22413)
T1 sequence (P22413 1-925): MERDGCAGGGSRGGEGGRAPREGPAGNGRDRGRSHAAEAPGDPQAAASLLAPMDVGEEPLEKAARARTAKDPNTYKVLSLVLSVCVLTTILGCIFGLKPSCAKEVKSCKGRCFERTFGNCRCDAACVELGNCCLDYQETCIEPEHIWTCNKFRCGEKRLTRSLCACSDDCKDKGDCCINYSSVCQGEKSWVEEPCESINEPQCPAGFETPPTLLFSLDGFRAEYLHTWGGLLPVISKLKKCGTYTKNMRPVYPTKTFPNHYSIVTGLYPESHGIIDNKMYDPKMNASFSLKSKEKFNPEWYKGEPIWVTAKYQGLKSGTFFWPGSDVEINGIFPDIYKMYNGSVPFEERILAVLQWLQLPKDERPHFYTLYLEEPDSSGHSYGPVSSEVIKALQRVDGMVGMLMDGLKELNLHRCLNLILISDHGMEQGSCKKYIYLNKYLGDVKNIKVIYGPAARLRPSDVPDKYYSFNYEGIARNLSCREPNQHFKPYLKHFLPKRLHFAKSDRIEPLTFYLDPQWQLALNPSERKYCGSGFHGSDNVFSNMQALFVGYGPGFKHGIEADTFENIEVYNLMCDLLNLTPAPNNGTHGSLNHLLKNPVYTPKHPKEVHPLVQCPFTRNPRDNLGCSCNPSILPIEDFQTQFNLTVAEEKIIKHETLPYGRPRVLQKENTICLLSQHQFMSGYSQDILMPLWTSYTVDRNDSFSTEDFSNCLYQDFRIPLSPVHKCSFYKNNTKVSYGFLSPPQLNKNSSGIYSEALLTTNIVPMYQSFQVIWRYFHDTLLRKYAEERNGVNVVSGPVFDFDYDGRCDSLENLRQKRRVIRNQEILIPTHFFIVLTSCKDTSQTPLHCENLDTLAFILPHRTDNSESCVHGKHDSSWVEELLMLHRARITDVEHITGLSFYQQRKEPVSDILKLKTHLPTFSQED

CN(C)C(=O)c1cccc(-n2sc3ccccc3c2=O)c1 [Compound 2q]
Inhibitory activity against NPP-1 (in words): devoid of any significant inhibitory activity
